# Assay results as given in patent US11890324B2, “Compounds for use in inducing myocardial perfusion recovery” (Epoqe Pharma ApS, priority 2018, dated 2024).
# Tested on: rats with acute myocardial infarction (permanent LAD occlusion)
# Experiment: Rat model of acute myocardial infarction (permanent LAD occlusion), myocardial perfusion imaging by SPECT/CT
# Conditions: in vivo
substance,measurement,value
N-alpha-[2-(2-{2-[(S)-4-Carboxy-4-(17-carboxyheptadecanoylamino)-butyrylamino]-ethoxy}ethoxy)acetyl](Ser1]alpha-human CGRP peptide [Compound I],Rats that died after the first treatment but before SPECT scan,29%
